# Some of the results follow. At the low end of the ranking, values are background and their order means little.
# Molecular target: GST-SBP-SLBP (stem-loop binding protein) (UniProt Q14493)
# Assay: targeted RNA Bind-n-Seq;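 also: DESeq read counts versus GST-SBP nonspecific binding control pulldown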
# Conditions: RBNS binding buffer: 25 mM Tris pH 7.5, 150 mM KCl, 3 mM MgCl2, 0.1% Tween, 0.5 mg/mL BSA, 1 mM DTT; 27 nM protein, 750 pM RNA pool; temperature not stated; high values mean tight binding
row,Sequence,binding signal (log2 fold change)
1,GGUCACGUCUCAAUCAACUCAUCGCCAGGAGUUUUCUCCUGUUAUUUCAACAGCUCGCAGUCAAG,0.159
2,GGUCACGUCUCAAUCAACUCAACUCCAGGAGUUUCCUCCUGUUAAUUCAACAGCUCGCAGUCAAG,0.0634
3,GGUCACGUCUCAAUCAACUCAACUUCCAGGGAAAUCCCUGGUAUUUUCAACAGCUCGCAGUCAAG,-0.186
4,GGUCACGUCUCAAUCAACUCUUCUCCAGGAGUUUUCUCCUGCAAUGUCAACAGCUCGCAGUCAAG,-0.082
5,GGUCACGUCUCAAUCAACUCUUCUUCCAGGGAAAGCCCUGGCAAACUCAACAGCUCGCAGUCAAG,-0.0185
6,GGUCACGUCUCAAUCAACUCUUCCUCCAGGGAAAUCCCUGGUAAUCUCAACAGCUCGCAGUCAAG,0.107
7,GGUCACGUCUCAAUCAACUCUACUCCAGGAGUUUUCUCCUGCUAACUCAACAGCUCGCAGUCAAG,0.0682
8,GGUCACGUCUCAAUCAACUCUUUUCCCAGGGAAAACCCUGGUAUUCUCAACAGCUCGCAGUCAAG,0.115
9,GGUCACGUCUCAAUCAACUCUACUCCAGGAGUUUCCUCCUGCAUUUUCAACAGCUCGCAGUCAAG,-0.0588
10,GGUCACGUCUCAAUCAACUCUACUCCCAGGGAAACCCCUGGCAAAUUCAACAGCUCGCAGUCAAG,-0.525
11,GGUCACGUCUCAAUCAACUCAUUUUCCAGGGAAACCCCUGGCUUUCUCAACAGCUCGCAGUCAAG,-0.172
12,GGUCACGUCUCAAUCAACUCAGUCUCAGGAGUUUUCUCCUGCAAUCUCAACAGCUCGCAGUCAAG,0.159
13,GGUCACGUCUCAAUCAACUCAAUCUCCAGGGAAACCCCUGGUUUUUUCAACAGCUCGCAGUCAAG,-0.0734
14,GGUCACGUCUCAAUCAACUCAUCUUCCAGGGAAAUCCCUGGUAUUCUCAACAGCUCGCAGUCAAG,0.195
15,GGUCACGUCUCAAUCAACUCAAUCUCCAGGGAAAUCCCUGGUAAACUCAACAGCUCGCAGUCAAG,0.00813
16,GGUCACGUCUCAAUCAACUCUUUUCCCAGGGAAAGCCCUGGCUAUUUCAACAGCUCGCAGUCAAG,-0.00148
17,GGUCACGUCUCAAUCAACUCAUCUCCAGGAGUUUUCUCCUGUAUAUUCAACAGCUCGCAGUCAAG,-0.114
18,GGUCACGUCUCAAUCAACUCUAUUCCCAGGGAAAGCCCUGGCAUACUCAACAGCUCGCAGUCAAG,0.0039
19,GGUCACGUCUCAAUCAACUCCCUCGAGGGGGGGAAAACCCCUUUACCCUCAUUCUCAACAGCUCGCAGUCAAG,0.288

row,Sequence,binding signal (log2 fold change)
1,GGUCACGUCUCAAUCAACUCUUCCCCAGGAGUUUACUCCUGCAAUUUCAACAGCUCGCAGUCAAG,0.233
2,GGUCACGUCUCAAUCAACUCGUCUUCAGGAGUUUACUCCUGCAUAUUCAACAGCUCGCAGUCAAG,0.148
3,GGUCACGUCUCAAUCAACUCUCCCGAGGGGGGGAAAACCCCUUUACCCUCAAUAUCAACAGCUCGCAGUCAAG,-0.143
4,GGUCACGUCUCAAUCAACUCUCUAGAGGGGGGGAAAACCCCUUUACCCUCAUCCUCAACAGCUCGCAGUCAAG,-0.36
5,GGUCACGUCUCAAUCAACUCAAUAGAGGGGGGGAAAACCCCUUUACCCUCGAUAUCAACAGCUCGCAGUCAAG,0.435
6,GGUCACGUCUCAAUCAACUCCCUCGAGGGGGGGAAAACCCCUUUACCCUCAAAUUCAACAGCUCGCAGUCAAG,-0.163
7,GGUCACGUCUCAAUCAACUCGUCUUCAGGAGUUUCCUCCUGCUUAUUCAACAGCUCGCAGUCAAG,-0.182
8,GGUCACGUCUCAAUCAACUCUUUUCCAGGAGUUUCCUCCUGUAUUUUCAACAGCUCGCAGUCAAG,-0.119
9,GGUCACGUCUCAAUCAACUCUAUUCCCAGGGAAAACCCUGGUUAAUUCAACAGCUCGCAGUCAAG,0.0158
10,GGUCACGUCUCAAUCAACUCUAUCUCCAGGGAAAUCCCUGGUAUUCUCAACAGCUCGCAGUCAAG,-0.0841
11,GGUCACGUCUCAAUCAACUCAAUCCCCAGGGAAACCCCUGGUUAACUCAACAGCUCGCAGUCAAG,-0.0913
12,GGUCACGUCUCAAUCAACUCAUGUCCAGGAGUUUUCUCCUGUAAUCUCAACAGCUCGCAGUCAAG,-0.188
13,GGUCACGUCUCAAUCAACUCAUUUCCAGGAGUUUGCUCCUGCAUAUUCAACAGCUCGCAGUCAAG,0.159
14,GGUCACGUCUCAAUCAACUCUAUAGAGGGGGGGAAAACCCCUUUGCCCUCCAAUUCAACAGCUCGCAGUCAAG,0.162
15,GGUCACGUCUCAAUCAACUCCUAAGAGGGGGGGAAAACCCCUUUACCCUCGUCCUCAACAGCUCGCAGUCAAG,0.382
16,GGUCACGUCUCAAUCAACUCUAUUUCAGGAGUUUCCUCCUGUAAACUCAACAGCUCGCAGUCAAG,-0.0986
17,GGUCACGUCUCAAUCAACUCUUUUCCAGGAGUUUUCUCCUGUUUUCUCAACAGCUCGCAGUCAAG,-0.0946
18,GGUCACGUCUCAAUCAACUCUUUAGAGGGGGGGAAAACCCCUUUACCCUCCAUAUCAACAGCUCGCAGUCAAG,-0.111

# From PMC5892938
